Measurements published in a collection of fitness landscapes (doi:10.1126/science.1257360).
The other results are listed elsewhere or left out.

B1: PhoQ; a variant is named by its letters at X, in order, P23837 (parent)
chain: MKKLLRLFFPLSLRVRFLLATAAVVLVLSLAYGMVALIGYSVSFDKTTFRLLRGESNLFYTLAKWENNKLHVELPENIDKQSPTMTLIYDENGQLLWAQRDVPWLMKMIQPDWLKSNGFHEIEADVNDTSLLLSGDHSIQQQLQEVREDDDDAEMTHSVAVNVYPATSRMPKLTIVVVDTIPVELKSSYMVWSWFIYVLSANLLLVIPLLWVAAWWSLRPIEALAKEVRELEEHNRELLNPATTRELTSLVRNLNRLLKSERERYDKYRTTLTDLTHSLKTPLXXLQXXLRSLRSEKMSVSDAEPVMLEQISRISQQIGYYLHRASMRGGTLLSRELHPVAPLLDNLTSALNKVYQRKGVNISLDISPEISFVGEQNDFVEVMGNVLDNACKYCLEFVEISARQTDEHLYIVVEDDGPGIPLSKREVIFDRGQRVDTLRPGQGVGLAVAREITEQYEGKIVAGESMLGGARMEVIFGRQHSAPKDE

Variants of: B1
Assay: enrichment ratio after two sorts for PhoP signalling (ratio (wild type AVST 3.29)); higher = more functional
Details: with PhoP (E. coli)

Variant	enrichment ratio
YMMH	≤ 0.25
ADRH	≤ 0.25
WHVR	≤ 0.25
SAGQ	9.95
PGAY	≤ 0.25
IWIF	≤ 0.25
DGQH	≤ 0.25
ILLN	≤ 0.25
QCTY	≤ 0.25
ERLA	≤ 0.25
MQNL	≤ 0.25
MKIF	≤ 0.25
MDKC	≤ 0.25
DYYP	≤ 0.25
EGNR	≤ 0.25
HMHF	≤ 0.25
EFWS	≤ 0.25
YFIG	≤ 0.25
HGMA	≤ 0.25
MWML	≤ 0.25
RYHL	≤ 0.25
QTNN	6.71
IRKR	≤ 0.25
IQGQ	≤ 0.25
TADF	1.55

Variant	enrichment ratio
MHKI	≤ 0.25
YDRY	≤ 0.25
MRST	≤ 0.25
HSLI	10.3
LMRV	≤ 0.25
LCSK	≤ 0.25
YMMC	≤ 0.25
WHTP	≤ 0.25
ITSL	≤ 0.25
TNWS	0.852
VTDF	≤ 0.25
GPPR	≤ 0.25
KVNM	≤ 0.25
TCAI	5.44
TACD	≤ 0.25
GYIN	≤ 0.25
GIHP	≤ 0.25
EADK	≤ 0.25
HTRA	≤ 0.25
VSFL	2.98
MVTL	4.61
CCLM	≤ 0.25
FFNA	≤ 0.25
VIAG	≤ 0.25
AMTY	9.73

Variant	enrichment ratio
YPFL	≤ 0.25
SALV	14.6
YVSK	≤ 0.25
PYHV	≤ 0.25
TTYA	1.14
MKET	≤ 0.25
KCID	≤ 0.25
HPSW	≤ 0.25
RFKL	≤ 0.25
HHYQ	≤ 0.25
EQTV	≤ 0.25
EDMF	≤ 0.25
MACC	≤ 0.25
NKVA	≤ 0.25
QSLH	≤ 0.25
LGLL	6.87
TGTD	≤ 0.25
YGIC	0.281
KKWD	≤ 0.25
RATC	≤ 0.25
DCIS	≤ 0.25
TDVQ	5.63
PTHP	≤ 0.25
AQIR	≤ 0.25
HFML	≤ 0.25

Variant	enrichment ratio
ESFF	≤ 0.25
GPSH	≤ 0.25
HENY	≤ 0.25
LEQT	≤ 0.25
VQAE	≤ 0.25
MISQ	0.426
IGWC	≤ 0.25
MTMM	59.5
LPHT	≤ 0.25
YYNH	≤ 0.25
FWWF	≤ 0.25
NEYY	≤ 0.25
TYTG	2.49
RAVH	≤ 0.25
NWTG	≤ 0.25
GIIL	1.49
VQDT	≤ 0.25
EFQI	≤ 0.25
EFSP	≤ 0.25
NRFR	≤ 0.25
GSPF	≤ 0.25
CIVF	0.285
MVGN	10.6
DGLL	≤ 0.25
RTRG	≤ 0.25

Variant	enrichment ratio
AYGL	≤ 0.25
ATVI	6.44
WAAR	≤ 0.25
KHLK	≤ 0.25
RIST	≤ 0.25
KYGH	≤ 0.25
SFPQ	≤ 0.25
GRSN	≤ 0.25
QLYI	1.99
LPWS	≤ 0.25
LDCM	≤ 0.25
GNPH	≤ 0.25
PVMV	≤ 0.25
LGGF	≤ 0.25
RDKI	≤ 0.25
PPDD	≤ 0.25
EHAR	≤ 0.25
GWMF	≤ 0.25
PGQP	≤ 0.25
EIWI	≤ 0.25
QDML	≤ 0.25
YPEC	≤ 0.25
YKAY	≤ 0.25
MRTI	0.883
PWQC	≤ 0.25

Variant	enrichment ratio
WIAL	≤ 0.25
WIIF	≤ 0.25
TNQQ	6.6
GDWY	≤ 0.25
LITH	≤ 0.25
ICVD	≤ 0.25
HKKH	≤ 0.25
QEFM	18.2
LPCR	≤ 0.25
PHHV	≤ 0.25
LYAN	≤ 0.25
KCNM	≤ 0.25
IDHQ	≤ 0.25
PHES	≤ 0.25
WVWW	≤ 0.25
PWDV	≤ 0.25
GQMN	≤ 0.25
PTYL	≤ 0.25
EYSQ	≤ 0.25
DMFS	≤ 0.25
PWHY	≤ 0.25
VTHE	≤ 0.25
EGSK	≤ 0.25
YNNA	≤ 0.25
ALPQ	≤ 0.25

Variant	enrichment ratio
TWDN	≤ 0.25
QWFF	≤ 0.25
QGSK	≤ 0.25
MRAP	≤ 0.25
FGWQ	≤ 0.25
HFQC	≤ 0.25
RQSR	≤ 0.25
QTSL	3.2
RAGW	≤ 0.25
PCSI	≤ 0.25
GVMF	2.88
VDFM	≤ 0.25
MVYT	≤ 0.25
PQRD	≤ 0.25
NMLW	≤ 0.25
MENY	≤ 0.25
TAHM	14.1
YMTR	≤ 0.25
TIYF	≤ 0.25
TMYS	≤ 0.25
RGET	≤ 0.25
SKSE	≤ 0.25
QIPH	≤ 0.25
YLVV	≤ 0.25
SWNK	≤ 0.25

Variant	enrichment ratio
NTDC	≤ 0.25
TWTT	≤ 0.25
NGVN	≤ 0.25
RLHE	≤ 0.25
RNQP	≤ 0.25
NSVA	≤ 0.25
DMTI	≤ 0.25
VEDV	≤ 0.25
MSAA	4.87
WRCM	≤ 0.25
NQFM	≤ 0.25
PMKR	≤ 0.25
LQRI	≤ 0.25
FYDQ	≤ 0.25
IKQQ	≤ 0.25
MILA	1.31
QFQY	≤ 0.25
DHKI	≤ 0.25
PYTF	≤ 0.25
ESRH	≤ 0.25
